In paper PMC4336329 (PLoS ONE, 2015):
The campaign covered roughly 310,000 compounds. About 2,200 (0.71%) showed an effect of 50% or more. The effect is printed as a negative number. Some of the results follow.

Target: human ether-à-go-go-related gene (hERG) potassium channel (human, UniProt Q12809)
Experiment: primary screen, population patch clamp on CHO cells stably expressing hERG

Sequence of human ether-à-go-go-related gene (hERG) potassium channel (Q12809 whole entry, looked up): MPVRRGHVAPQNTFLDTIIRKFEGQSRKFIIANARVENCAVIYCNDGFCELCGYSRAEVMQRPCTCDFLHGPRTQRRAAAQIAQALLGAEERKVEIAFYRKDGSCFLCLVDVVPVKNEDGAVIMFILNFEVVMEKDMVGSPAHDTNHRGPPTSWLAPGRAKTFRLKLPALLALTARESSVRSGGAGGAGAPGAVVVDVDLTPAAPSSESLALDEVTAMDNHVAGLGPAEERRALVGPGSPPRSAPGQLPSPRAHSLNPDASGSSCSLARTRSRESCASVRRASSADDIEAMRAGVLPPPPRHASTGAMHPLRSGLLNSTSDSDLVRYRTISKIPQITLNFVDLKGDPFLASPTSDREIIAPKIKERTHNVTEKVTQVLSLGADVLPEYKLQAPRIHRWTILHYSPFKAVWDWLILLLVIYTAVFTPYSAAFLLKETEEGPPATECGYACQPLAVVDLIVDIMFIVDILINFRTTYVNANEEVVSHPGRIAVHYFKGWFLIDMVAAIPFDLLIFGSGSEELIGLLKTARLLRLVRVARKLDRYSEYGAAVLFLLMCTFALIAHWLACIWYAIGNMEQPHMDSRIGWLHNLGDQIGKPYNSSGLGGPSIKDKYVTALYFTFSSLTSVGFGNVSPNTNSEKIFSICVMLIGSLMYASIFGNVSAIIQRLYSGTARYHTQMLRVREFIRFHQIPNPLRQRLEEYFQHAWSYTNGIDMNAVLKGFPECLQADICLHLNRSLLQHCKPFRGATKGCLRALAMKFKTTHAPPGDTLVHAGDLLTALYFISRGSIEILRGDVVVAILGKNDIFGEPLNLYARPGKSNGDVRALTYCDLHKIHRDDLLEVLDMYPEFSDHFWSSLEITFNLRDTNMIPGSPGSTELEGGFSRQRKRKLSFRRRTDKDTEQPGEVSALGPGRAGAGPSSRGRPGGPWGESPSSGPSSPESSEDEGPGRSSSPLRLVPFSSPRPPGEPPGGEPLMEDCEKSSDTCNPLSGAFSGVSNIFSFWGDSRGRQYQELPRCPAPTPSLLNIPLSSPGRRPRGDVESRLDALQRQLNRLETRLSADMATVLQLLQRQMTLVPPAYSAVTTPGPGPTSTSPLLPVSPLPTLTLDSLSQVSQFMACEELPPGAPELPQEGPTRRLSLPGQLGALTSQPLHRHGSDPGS

SMILES | hERG current change (%, negative = inhibition) at 1uM [%]
Cc1nn(-c2ccccc2)c2c1C(c1ccc(Cl)cc1)N(c1ccccc1)C(=O)N2 (stereo not drawn) | -8.45
CC1CN(C(=O)N[C@@H](Cc2ccccc2)C(=O)O)CC(C)O1 (stereo partly drawn) | 6.78
Cc1cc(C)cc(N(CC(=O)NC2CCCCC2)C(=O)CNC(=O)c2ccco2)c1 | 5.75
CC(C)(c1ccccc1)c1ccc(OCCN2CCCC2)cc1 | 12.5
O=C(CSc1nnc(CNC(=O)c2ccc(F)cc2)o1)NCc1ccccc1Cl | 6.48
O=[N+]([O-])c1cnccc1Nc1cccc(F)c1 | 4.22
CC(C)NC(=O)C1CCN(C2CCN(C(=O)/C=C/c3cccs3)CC2)CC1 | 0.466
COc1cc(C(=O)NCC(c2ccccc2)N(C)C)ccc1OCC(=O)N1CCOCC1 (stereo not drawn) | 12.1
NN1C(=O)NC(c2ccccc2)(c2ccccc2)C1=O | 8.48
COc1cccc(C2CC(c3cccs3)=NN2C(=O)CCC(=O)O)c1OC (stereo not drawn) | 11.3
COc1ccc(C2N(C(C)=O)CCCN2S(=O)(=O)c2ccc(C)cc2)cc1 (stereo not drawn) | -6.08
CCn1c(SCC(=O)c2ccc(O)c(O)c2)nnc1-c1ccc(C)cc1 | -2.88
CCN(c1ccccc1)S(=O)(=O)c1ccc(NC(=O)C(C)(C)C)cc1 | 2.29
Cc1nn(-c2cccc(Cl)c2)c2c1C(c1cccnc1)C(C#N)=C(N)O2 (stereo not drawn) | 16.8
O=C(CCCc1c[nH]c2ccccc12)NCc1ccc2c(c1)OCO2 | 3.51
COc1ccccc1N1CCN(C(=O)C2CCN(S(=O)(=O)c3ccc(F)cc3)CC2)CC1 | -0.279
O=C(CNC(=O)c1ccccc1)OCCCOC(=O)CNC(=O)c1ccccc1 | 9.3
NS(=O)(=O)c1ccc(NC(=O)C(=O)NCCC(=O)O)cc1 | -13.4
O=C(CN(c1ccccc1)S(=O)(=O)c1ccccc1)Nc1ccc(F)cc1 | 17
O=C(CNC(=O)c1cccs1)NCC(=O)OCc1ccc(Cl)cc1Cl | -1.41
Cc1c(C(=O)N2CCN(c3ccccn3)CC2)cccc1[N+](=O)[O-] | 4.41
COC(=O)Nc1ccc(S(=O)(=O)N2CCCCC2C(=O)O)cc1 (stereo not drawn) | 17.2
Cc1ccc(NC(=O)C2CC(=O)Nc3ncnn32)c(C)c1 (stereo not drawn) | -5.16

SMILES | hERG current change (%, negative = inhibition) at 1uM [%]
Cc1cc(Br)ccc1SCC(=O)Nc1cccnc1 | 11.8
CCC1CN(C(=O)Nc2cccc(C)c2)c2cc(C)ccc2O1 (stereo not drawn) | 0.0513
Cn1c(=O)c2c(ncn2CCC(=O)N/N=C/c2cccnc2)n(C)c1=O | 14.2
Cc1ccc(-n2c(-c3ccco3)nc3nc4ccccc4nc32)cc1 | -9.46
CCCn1nc(NC(=O)C(C)C)c2cc3cc(OC)ccc3nc21 | 9.61
CCOc1ccc(NC(=O)CSc2nccn2C)cc1 | 3.49
O=C(NCCF)C1Nc2ccc(OC(F)(F)F)cc2C2C=CCC12 (stereo not drawn) | 5.8
Cc1ccc(C)c(-c2csc(N/N=C/c3ccco3)n2)c1 | 17.1
COc1ccc(NC2CCCN(C(=O)C3(C)CCCCC3)C2)cc1 (stereo not drawn) | 12.8
N#CC(c1nc2ccccc2nc1N1CCCC1)S(=O)(=O)c1ccccc1 (stereo not drawn) | 5.15
Cc1cc(CNC(=O)COc2ccc(C#N)cc2)c2ccccc2n1 | -21.7
CC(C)(C)c1cc[n+](-c2[nH]c(=O)sc2/C=N/N=C(\[O-])c2cccnc2)cc1 | 19.9
Oc1ccc(N2CCN(c3ncnc4sc5c(c34)CCC5)CC2)cc1 | 9.37
Cc1ccc(OCCn2cnc3c(N)ncnc32)cc1 | -5.58
CC1(C)CC2(CC(c3ccccc3)Oc3cc(O)ccc32)NC(=O)N1 (stereo not drawn) | 10.8
OCCCc1cn(CC2CCCCC2)nn1 | 5.63
COCCCN1C(=O)C(O)=C(C(=O)c2ccco2)C1c1ccccc1 (stereo not drawn) | 19.1
Cc1cc(S(=O)(=O)Nc2c(C)nn(C)c2C)c(Cl)cc1Cl | 14.5
CSCCC(Nc1nc2ccccc2s1)C(=O)O (stereo not drawn) | 1.87
C/C(=N/NC(=O)CN(c1ccccc1)S(=O)(=O)c1ccccc1)c1ccccc1O | 11.9
COc1ccccc1NC(=O)CCN1C(=O)/C(=C\c2cc(OC)c(OC)c(OC)c2)SC1=S | 14
COc1ccc(Cc2nc3ccc(C(=O)NC(C)Cc4ncccc4C)cc3o2)cc1OC (stereo not drawn) | 10.2
